Out of some 420,000 compounds screened, about 50,000 (12%) were called active. This list was built around the results that the source calls inconclusive (neither active nor inactive); the mix of calls is not that of the screen. Calls come from the whole dose curve; as a rule, active = well fitted inhibition curve with a large enough effect; inconclusive = small, poorly fitted or top-dose-only effect; inactive = flat fitted curve, though single readings scatter. No potency is given beside an inconclusive call; the fits are too rough.
experiment: qHTS for Inhibitors of human tyrosyl-DNA phosphodiesterase 1 (TDP1): qHTS in cells in presence of CPT; conditions: chicken DT40 Tdp1-/-;hTDP1 cells + 20 nM CPT, ATP luminescence, 48 h; activity change, negative = growth inhibition: at 46.2 µM (top of the series) unless noted; note: nearly all actives have a fitted effect of over 55% in size
Procedure, shortened: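 Chicken DT40 Tdp1-/- cells complemented with human TDP1, 400 cells/well, exposed to compounds plus 20 nM camptothecin for at least 48 h at 37 C; viability read as ATP content by CellTiter-Glo luminescence.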
% is set by controls: 0 for no effect and ±100 for the full control effect; potency is the fitted concentration of half-maximal effect; tags give direction and shape of the fitted curve.

Row | Compound | Potency | activity change, negative = growth inhibition
1 | COc1ccc(CNC(=O)c2csc3c2CCCC3)cc1 | inconclusive [inhibitor, single point] | –
2 | Cc1ccc2nc(/C=C/c3cccc(F)c3)ccc2c1 | – | inactive: 1.23%
3 | Cc1ccc(/C=C/C(=O)Nc2ccncc2)o1 | – | inconclusive: -32.9% [inhibitor]
4 | O=C(NCc1ccccc1CN1CCCC1)c1ccc(Cl)c(S(=O)(=O)N2CCCC2)c1 | inconclusive [inhibitor, single point] | –
5 | CCCN(CC(=O)Nc1ccccc1OC)C(=O)CSC(=S)N1CCCC1 | inconclusive [inhibitor, single point] | –
6 | Cc1cccc(C)c1NC(=O)C(c1cccs1)N(Cc1ccco1)C(=O)Cn1nnc2ccccc21 (centres undefined) | inconclusive [inhibitor, single point] | –
7 | COCCCn1c(=O)c2sccc2n2c(CCCC(=O)NCc3cccc(OC)c3)nnc12 | inconclusive [inhibitor, single point] | –
8 | COc1ccc(C)cc1NC(=O)CN1CCN(S(=O)(=O)c2ccc3ccccc3c2)CC1 | active: 16.4 µM | –
9 | COc1cc(CNn2c(C)n[nH]c2=S)cc(Br)c1OCC(=O)NC(C)(C)C | inconclusive [inhibitor, single point] | –
10 | Cc1ccc(S(=O)(=O)N(C)S(=O)(=O)c2ccc(C)cc2)cc1 | – | inactive: -22.4%
11 | COCCn1c(=S)[nH]c2sc3c(c2c1=O)CCC(C)C3 (centres undefined) | inconclusive [inhibitor, single point] | –
12 | Cc1ccc(N(C)C(=O)c2sc3nc4n(c(=O)c3c2C)CCCC4)cc1C | active: 23.1 µM | –
13 | CCCC(=O)Nc1c(-c2cccc(OC)c2)c(=O)c2ccccc2n1C | inconclusive [inhibitor, single point] | –
14 | CCOC(=O)CNC(=O)CSc1nc(-c2ccccc2)ns1 | inconclusive [inhibitor, partial curve] | –
15 | COc1ccc(NC(=O)CSc2ncc3c(n2)-c2ccccc2N(Cc2ccc(C)cc2)S3(=O)=O)cc1Cl | inconclusive [inhibitor, partial curve] | –
16 | CC1CC=C(c2ccccc2)C(=S)N1 (centres undefined) | inconclusive [inhibitor, single point] | –
17 | COc1cccc(-c2c(C#N)c(N)nc3c2c(C)nn3-c2ccccc2)c1O | inconclusive [inhibitor, single point] | –
18 | COc1ccc(CC(=O)Nc2cccc(SC)c2)cc1 | – | inconclusive: -33.8% [inhibitor]
19 | CCCCOc1ccc(C(=O)Nc2ccc3c(c2)CCCN3C(=O)c2cccs2)cc1 | active: 5.8 µM | –

Source: PubChem BioAssay AID686979 (National Center for Advancing Translational Sciences (NCATS), 2013)
